# Measurements reported in PubChem BioAssay AID1508623 (National Center for Advancing Translational Sciences (NCATS), 2021).
# Among all 48,000 compounds or so, about 450 (0.94%) were called active. The shares of active, inactive and inconclusive entries below differ from those in the screen. Calls come from the whole dose curve; as a rule, active = well fitted inhibition curve with a large enough effect; inconclusive = small, poorly fitted or top-dose-only effect; inactive = no such curve, though single readings can be large or run the other way. A potency beside an inconclusive call is a rough fit, not a confirmed value.
# Experiment: Primary qHTS for Identification of Small Molecule Inhibitors of Huntingtin Promoter Activity; note: nearly all actives have a fitted effect of over 50% in size
# Details: HEK293 HTT promoter firefly luciferase reporter (activity 0% = vehicle and -100% = no light), 24 h; series mostly up to 57.5 µM
# How it was run: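 HEK293 luciferase promoter-reporter cells (2,500/well) plated 24 h, then compounds added at up to 57.5 uM final for 24 h at 37 °C. Firefly luminescence by Dual-Glo, normalized to vehicle (0%) and zero RLU (-100%).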
# Potency is the fitted concentration of half-maximal effect; tags give direction and shape of the fitted curve.
row,SMILES,Potency
1,CCN(CCCNC(=O)c1cc2cc3ccc(OC)cc3nc2s1)c1cccc(C)c1,inactive
2,COc1ccc(C(=O)NCCn2cc(SCc3cc(C)ccc3C)c3ccccc32)cc1,"inconclusive: 25.1 µM [inhibitor, single point]"
3,Cc1ccccc1CNC(=O)c1cc2cc(S(=O)(=O)N3CCCCC3)ccc2n1C,"inconclusive: 28.2 µM [inhibitor, single point]"
4,Cc1cccc(Cn2nnc(C(=O)Nc3cc(C)ccc3C)c2N)c1,"inconclusive: 20 µM [inhibitor, partial curve, poor fit]"
5,COc1cccc(NC(=O)C2CCN(c3nc4ccccc4nc3C(F)(F)F)CC2)c1,"inconclusive: 22.4 µM [inhibitor, single point]"
6,Cc1ccc(CNC(=O)CCCn2c(=O)c3ccccc3n(Cc3ccccc3C)c2=O)cc1,"inconclusive: 31.6 µM [inhibitor, single point]"
7,Cc1cc(C)c2sc(NC(=O)c3ccc(S(=O)(=O)N4CCOCC4)cc3)nc2c1,"inconclusive: 39.8 µM [inhibitor, single point]"
8,COC(=O)c1ccccc1NC(=O)c1ccc2c(=O)n3c(nc2c1)CCCCC3,inactive
9,O=C(CN1C=NS(=O)(=O)c2ccc(C(F)(F)F)cc21)Nc1cccc(C(F)(F)F)c1,inactive
10,COc1ccc(Nc2c3c(nc4ccc(NC(=O)/C=C/c5cccc(OC)c5OC)cc24)CCCC3)cc1OC,"inconclusive: 22.4 µM [inhibitor, partial curve, poor fit]"
11,CCc1cccc(NC(=O)CSc2nc3ccsc3c(=O)n2CC)c1,"inconclusive: 39.8 µM [inhibitor, single point]"
12,Cc1ccc(CN(Cc2cccn2-c2nnc(N3CCCC3=O)s2)C(=O)Nc2ccccc2C(F)(F)F)cc1,"inconclusive: 28.2 µM [inhibitor, single point]"
13,COC(=O)[C@H]1[C@H]2C[C@@H]3c4[nH]c5cc(OC)ccc5c4CCN3C[C@H]2C[C@@H](OC(=O)/C=C/c2ccc(O)c(OC)c2)[C@@H]1OC,inactive
14,CCOc1ccc(N(CC)S(=O)(=O)N2CCCC(C(=O)Nc3cc(Cl)ccc3C)C2)cc1 (centres undefined),"inconclusive: 28.2 µM [inhibitor, single point]"
15,O=C(c1noc2c1CCCCC2)N1CCN(c2cccc(C(F)(F)F)c2)CC1,"inconclusive: 25.1 µM [inhibitor, partial curve, poor fit]"
16,Cc1ccc(C(=O)Nc2ccc(S(=O)(=O)O)c3cc(S(=O)(=O)O)cc(S(=O)(=O)O)c23)cc1NC(=O)c1cccc(NC(=O)Nc2cccc(C(=O)Nc3cc(C(=O)Nc4ccc(S(=O)(=O)O)c5cc(S(=O)(=O)O)cc(S(=O)(=O)O)c45)ccc3C)c2)c1,inactive
17,CN1CCN(C(=O)Cn2c(-c3cccs3)cc3cc(Cl)ccc32)CC1,"inconclusive: 25.1 µM [inhibitor, single point]"
18,Cc1ccc(Cl)cc1N1CCN(C(=O)C2CCN(S(=O)(=O)c3cccc4nonc34)CC2)CC1,"inconclusive: 22.4 µM [inhibitor, partial curve, poor fit]"
19,CC(C)(C)c1ccc(C(=O)N2CCC(c3nc(-c4ccc(S(=O)(=O)N5CCCC5)cc4)no3)CC2)cc1,"inconclusive: 3.16 µM [inhibitor, single point]"
20,Cc1ccc(-c2n[nH]c3c2C(c2cccc(O)c2)N(c2ccc(C(=O)O)cc2)C3=O)cc1 (centres undefined),inactive

row,SMILES,Potency
1,O=C(Cn1nc(N2CCN(c3ccccc3)CC2)ccc1=O)Nc1ccc(F)cc1F,inactive
2,COc1ccc(CNC(=O)C2CCCN(C(=O)N3CCOc4ccccc43)C2)cc1 (centres undefined),"inconclusive: 39.8 µM [inhibitor, single point]"
3,CCCN(CCC)S(=O)(=O)c1ccc2c(c1)N(CC(=O)NCc1ccc(F)cc1Cl)C(=O)CS2,"inconclusive: 28.2 µM [inhibitor, single point]"
4,Cc1ccc(-n2nc3c(=O)n(CCCC(=O)NCc4ccccc4C)nc(C)c3c2C)cc1,"inconclusive: 14.1 µM [inhibitor, partial curve, poor fit]"
5,O=C(NCc1cccn1Cc1ccccc1)Nc1cccc(C(F)(F)F)c1,"inconclusive: 39.8 µM [inhibitor, single point]"
6,CCOc1cccc(C2c3[nH]c4ccccc4c3CCN2C(=O)c2ccccc2F)c1 (centres undefined),"inconclusive: 22.4 µM [inhibitor, single point]"
7,CCOC(=O)c1c(SCC(=O)Nc2nc3ccccc3s2)nc(=O)[nH]c1C,inactive
8,CCOC(=O)c1cnc2cc(C(F)(F)F)ccc2c1N1CCN(c2cccc(Cl)c2)CC1,"inconclusive: 3.98 µM [inhibitor, single point]"
9,CCC(C(=O)NCc1ccco1)n1nc(C)c2c(C)n(-c3ccc(C)cc3)nc2c1=O (centres undefined),"inconclusive: 12.6 µM [inhibitor, single point]"
10,CN(C)c1ccc(CNC(=O)c2cccc(NC(=O)N3CCSc4ncccc43)c2)cc1,"inconclusive: 20 µM [inhibitor, partial curve, poor fit]"
11,Cc1ccc(NS(=O)(=O)c2ccc3c(c2)n(C)c(=O)n3C)cc1C,"inconclusive: 17.8 µM [inhibitor, partial curve, poor fit]"
12,Cc1cc(C)cc(NC(=O)Cn2cc(S(=O)(=O)NC(C)(C)C)c(S(=O)(=O)NC(C)(C)C)c2)c1,"inconclusive: 35.5 µM [inhibitor, partial curve, poor fit]"
13,O=C(NCCn1cc(SCc2ccccc2Cl)c2ccccc21)c1cccs1,"inconclusive: 39.8 µM [inhibitor, single point]"
14,N#CC(c1ccnc(NCCc2cccnc2)n1)c1nc2ccccc2s1 (centres undefined),inactive
15,O=C(Nc1ccc(F)c(F)c1)c1cc(S(=O)(=O)NC2CCCCCC2)ccc1F,active: 25.1 µM
16,CCOC(=O)c1sc2ccccc2c1S(=O)(=O)Nc1ccc(CC)cc1,"inconclusive: 20 µM [inhibitor, partial curve]"
17,COc1ccc(-c2cc(C(F)(F)F)nc(S(C)(=O)=O)n2)cc1,"inconclusive: 39.8 µM [inhibitor, single point]"
18,NS(=O)(=O)c1ccc(CCNc2nccn(-c3cccc(C(F)(F)F)c3)c2=O)cc1,"inconclusive: 31.6 µM [inhibitor, partial curve, poor fit]"
19,O=c1c2oc3ccccc3c2n(Cc2cccc(Cl)c2)c(=O)n1Cc1ccco1,"inconclusive: 28.2 µM [inhibitor, partial curve, poor fit]"
20,Cc1ccc2occ(CC(=O)N(Cc3ccc(Cl)cc3)C3CCS(=O)(=O)C3)c2c1 (centres undefined),"inconclusive: 39.8 µM [inhibitor, single point]"

row,SMILES,Potency
1,CCCC1=Nc2cc(C(=O)NC3CCCC3)ccc2Sc2ccc(C)cc21,"inconclusive: 4.47 µM [inhibitor, partial curve, poor fit]"
2,COc1cc(CN(C(=O)COc2ccc(C)cc2)c2ccccn2)cc(OC)c1OC,"inconclusive: 22.4 µM [inhibitor, partial curve]"
3,C[C@@H](O[C@H]1OCCN(Cc2n[nH]c(=O)[nH]2)[C@@H]1c1ccc(F)cc1)c1cc(C(F)(F)F)cc(C(F)(F)F)c1,"inconclusive: 30.6 µM [inhibitor, single point]"
4,Cc1cccc(NC(=O)C2CCN(S(=O)(=O)c3ccc(F)cc3)CC2)c1C,"inconclusive: 39.8 µM [inhibitor, partial curve, poor fit]"
5,CCCn1c(=O)sc2cc(NC(=O)COc3ccc(Cl)cc3)ccc21,inactive
6,COc1cccc(CN(C(=O)c2oc3cc(C)ccc3c2C)C2CCS(=O)(=O)C2)c1 (centres undefined),inactive
7,CCOC(=O)c1ccc(NS(=O)(=O)c2ccc3c(c2)n(C)c(=O)n3C)cc1,"inconclusive: 10 µM [inhibitor, partial curve]"
8,COc1ccc(CCNC(=O)c2ccc3c(c2)c(C)c(C)n3Cc2ccc(F)cc2)c(OC)c1OC,"inconclusive: 22.4 µM [inhibitor, single point]"
9,O=S(=O)(NCc1ccc(F)cc1)c1ccc(-c2cnc(C3CC3)o2)cc1,"inconclusive: 17.8 µM [inhibitor, partial curve]"
10,COc1cccc(C(=O)Nc2ccccc2C(=O)OCc2cc(=O)n3nc(C4CC4)sc3n2)c1,inactive
11,Cc1c(C)c2c(cc(C)c3c(-c4ccccc4)coc32)oc1=O,inactive
12,COc1ccc(NC(=O)CSc2oc(-c3cccs3)nc2S(=O)(=O)c2ccc(C)cc2)c(OC)c1,inactive
13,CCSc1nc(-c2ccccc2OC)nc2c1Cc1c(CO)cnc(C)c1O2,"inconclusive: 20 µM [inhibitor, single point]"
14,CCOC(=O)c1c(C)oc2ncnc(N3CCN(c4ccccc4F)CC3)c12,"inconclusive: 31.6 µM [inhibitor, single point]"
15,CCCCS(=O)(=O)c1oc(-c2cccs2)nc1S(=O)(=O)c1ccccc1,"inconclusive: 39.8 µM [inhibitor, single point]"
16,CCOc1ccccc1NC(=O)CSc1nc(=O)[nH]c2c1CCCC2,"inconclusive: 39.8 µM [inhibitor, single point]"
17,COc1ccc(OC)c(NC(=O)Cn2cnc3ccc(S(=O)(=O)N4CCC(C)CC4)cc3c2=O)c1,inactive
18,CN(Cc1ccccc1)C(=O)c1ccc2c(c1)N(Cc1ccccc1F)C(=O)c1ccccc1S2(=O)=O,"inconclusive: 39.8 µM [inhibitor, partial curve, poor fit]"
19,CN(C(=O)CSc1nc2ccc(NC(=O)COc3ccc(Cl)cc3)cc2s1)c1ccccc1,"inconclusive: 35.5 µM [inhibitor, partial curve, poor fit]"
